# Measurements: publication PMC4336329 (PLoS ONE, 2015)
# The campaign covered roughly 310,000 compounds. About 14,000 (4.5%) showed an effect of 50% or more. The effect is printed as a negative number. The list shows a part of the results.
# Molecular target: human ether-à-go-go-related gene (hERG) potassium channel (human, UniProt Q12809)
# Assay: primary screen, population patch clamp on CHO cells stably expressing hERG
# 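Also: peak tail current of the secondary pulse compared with the same well before compound.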
# Chain of human ether-à-go-go-related gene (hERG) potassium channel (Q12809 whole entry, looked up): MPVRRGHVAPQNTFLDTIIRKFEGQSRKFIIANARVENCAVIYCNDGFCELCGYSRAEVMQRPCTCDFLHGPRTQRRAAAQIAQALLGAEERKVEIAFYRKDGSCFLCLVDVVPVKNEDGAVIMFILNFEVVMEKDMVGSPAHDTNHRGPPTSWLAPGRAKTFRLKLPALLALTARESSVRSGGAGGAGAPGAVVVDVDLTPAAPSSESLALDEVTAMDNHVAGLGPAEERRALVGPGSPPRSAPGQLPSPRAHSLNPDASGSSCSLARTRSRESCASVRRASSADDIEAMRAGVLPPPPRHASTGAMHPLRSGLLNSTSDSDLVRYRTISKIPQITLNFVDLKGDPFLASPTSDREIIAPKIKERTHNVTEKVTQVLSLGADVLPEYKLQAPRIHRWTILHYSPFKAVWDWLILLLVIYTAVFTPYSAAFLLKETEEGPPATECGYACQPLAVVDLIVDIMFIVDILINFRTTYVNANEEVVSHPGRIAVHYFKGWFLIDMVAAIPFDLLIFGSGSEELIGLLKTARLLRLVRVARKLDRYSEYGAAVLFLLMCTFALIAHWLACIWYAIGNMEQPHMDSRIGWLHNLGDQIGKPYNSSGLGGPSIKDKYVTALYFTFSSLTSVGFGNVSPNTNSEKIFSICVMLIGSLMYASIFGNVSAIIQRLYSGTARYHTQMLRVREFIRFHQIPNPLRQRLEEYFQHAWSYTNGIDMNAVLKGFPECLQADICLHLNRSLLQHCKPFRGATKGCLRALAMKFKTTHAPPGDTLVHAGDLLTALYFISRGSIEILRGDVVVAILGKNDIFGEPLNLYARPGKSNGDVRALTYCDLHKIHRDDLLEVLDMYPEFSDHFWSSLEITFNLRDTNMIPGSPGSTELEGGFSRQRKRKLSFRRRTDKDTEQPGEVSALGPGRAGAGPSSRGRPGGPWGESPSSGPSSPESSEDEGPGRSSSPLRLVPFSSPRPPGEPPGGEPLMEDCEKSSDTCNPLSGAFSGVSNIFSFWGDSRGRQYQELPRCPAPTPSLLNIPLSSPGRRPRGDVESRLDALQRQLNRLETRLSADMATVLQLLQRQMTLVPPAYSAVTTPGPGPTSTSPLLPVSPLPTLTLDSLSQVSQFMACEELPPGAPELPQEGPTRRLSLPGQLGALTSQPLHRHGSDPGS
row,Compound,"hERG current change (%, negative = inhibition) at 10uM [%]"
1,COC(=O)c1ccc(S(=O)(=O)N(Cc2ccccc2)Cc2ccccc2)n1C,10.8
2,Cc1cccc(-n2ncc3c(NCCN4CCOCC4)ncnc32)c1,-28.7
3,O=c1[nH]c(=O)n(Cc2ccco2)c(O)c1C=NC1CCN(Cc2ccccc2)CC1,-59.2
4,COc1ccc(N(CC(=O)N2CCCCC2)S(=O)(=O)c2c(C)nn(C)c2C)cc1,4.36
5,COc1ccc(C(=O)/C=C2/C(=O)Nc3ccccc32)cc1OC,11.1
6,COc1ccc2nc(C)cc(SCC(=O)N/N=C/c3cccc4ccccc34)c2c1,5.42
7,O=C(NNc1nc(-c2ccccc2)cs1)c1ccco1,-5.46
8,COC(=O)CSc1ccc2nnc(CCNS(=O)(=O)c3ccc(C)cc3)n2n1,11.9
9,C/C(=N\NC(=O)CSc1nc(C)cc(C)n1)c1cccc([N+](=O)[O-])c1,19.9
10,Cc1cccn2c(=O)c3cc(S(=O)(=O)c4ccc(F)cc4)c(=N)n(Cc4ccco4)c3nc12,-34.8
11,CC(C)(C)C1CCc2c(sc3nc(SCC(N)=O)nc(N)c23)C1 (stereo not shown),3.74
12,O=C(CC1CCCCC1)NCc1ccc(F)cc1,15.2
13,Cl.c1ccc2c(c1)CCCc1cc(NCCN3CCOCC3)nnc1-2,-16.3
14,O=C(Nc1ccc(Br)cc1)C1C2C=CC3(O2)C1C(=O)N(CCN1CCOCC1)C3C(=O)NC1CCCCC1 (stereo not shown),-3.6
15,Cc1ccc(C(=O)OCC(=O)NC(=O)Cc2ccccc2)c(O)c1,21.9
16,CCOc1ccc(C(=O)Nc2nnn(CC)n2)cc1,4.01
17,CCC(C)(C(=O)NC1CCCC1)N(C(=O)c1cnccn1)c1c(C)n(C)n(-c2ccccc2)c1=O (stereo not shown),-2.47
18,CCOC(=O)c1c(-n2c(C)cc(C=C3C(=O)NC(=O)NC3=O)c2C)sc2c1CCCC2,2.5
19,O=CNc1ccccc1,14.6
20,CCOC(=O)CON1C(=O)C(C)(C)N(OCC(=O)OCC)C(=O)C1(C)C,21.1
21,O=C1COc2ccc(C(=O)c3ccccc3)cc2CN1,-4.36
22,CC1(c2ccccc2)CC(c2ccccc2)=Nc2nonc2N1 (stereo not shown),-20.6

row,Compound,"hERG current change (%, negative = inhibition) at 10uM [%]"
1,COc1ccc(-c2noc3c2-c2nc(-c4ccccc4F)sc2CC3)cc1,-12.8
2,CCN1C(=O)N(S(=O)(=O)c2ccc(C)cc2)[C@@H](c2ccccc2)C(C(=O)OC)=C1C,6.86
3,CS(=O)(=O)Nc1cccc(C2=NN(C(=O)c3cccc(F)c3)C(c3cccs3)C2)c1 (stereo not shown),3.75
4,O=[N+]([O-])c1ccc2c(c1)nc(CO)n2Cc1ccccc1,5.82
5,Cc1nc(C)n(CC(O)COc2ccc3ccccc3c2)n1 (stereo not shown),-5.58
6,O=c1c2ccccc2[nH]c(=S)n1CCCN1CCOCC1,8.73
7,Cc1ccc(C(=O)NCC(=O)NC2CCCCCC2)cc1,8.54
8,CC1CC(C)CN(c2nc(N(C)c3ccccc3)nc(N)c2[N+](=O)[O-])C1 (stereo not shown),-5.52
9,COc1ccccc1-n1cnc2cc(NC(C)=O)ccc21,15.6
10,O=C1CCC(=O)N1CN(C(=O)c1ccco1)c1ccccc1,19.4
11,COCCn1c(-c2ccc(OC)cc2)nc2ccccc21,-0.766
12,COc1ccc(NC(=O)CSc2nnc(N)n2CC(=O)Nc2ccc(OC)cc2)cc1,11.1
13,N/C(=N\N=C\c1ccc2c(c1)OCO2)SC1CC(=O)N(c2ccc(C(=O)O)cc2)C1=O (stereo not shown),15.1
14,O=C(N/N=C/c1ccc(Cl)cc1Cl)c1ccc(-n2cnnn2)cc1,9.94
15,COc1ccc(S(=O)(=O)N(C)C)cc1NCC(=O)Nc1ccc(F)cc1F,-19.1
16,CN(c1ccccc1)S(=O)(=O)c1ccc(C(=O)NCc2cccs2)cc1,-10.6
17,O=C(NCCC(=O)N1CCCC1)c1ccccc1Cl,22
18,CNS(=O)(=O)c1ccc2c(c1)oc(=O)c1cc(S(=O)(=O)NC)ccc12,20.1
19,O=C(CNC(=O)c1cccc(Br)c1)NCCc1nc2ccccc2[nH]1,5.59
20,CCC1(CC)NC(=O)N(CC(=O)OCC(=O)Nc2ccccc2[N+](=O)[O-])C1=O,3
21,COc1ccc(S(=O)(=O)N2CCN(c3ccc(F)cc3)CC2)cc1OC,-1.24
22,Cc1ccc(/C=N/NC(=O)Cc2cccn2C)cc1,-1.75

row,Compound,"hERG current change (%, negative = inhibition) at 10uM [%]"
1,COc1cc([N+](=O)[O-])ccc1NC(=O)C1CCCN(S(C)(=O)=O)C1 (stereo not shown),-9.96
2,CC(C)CN(C(=O)CCCSc1nc2ccccc2[nH]1)c1c(N)n(Cc2ccccc2)c(=O)[nH]c1=O,-43.2
3,CC(C)c1ccc(N2C(=O)CC(NNC(=O)c3cccnc3)C2=O)cc1 (stereo not shown),17
4,Cn1c(=O)c2c(nc(CN3CCN(c4ccc(F)cc4)CC3)n2Cc2ccccc2F)n(C)c1=O,-6.93
5,O=C(Nc1ccccc1F)OC1CN2CCC1CC2 (stereo not shown),6.21
6,COc1ccc2c(c1)CCc1cn[nH]c1-2,18.7
7,O=C(NCc1ccco1)C1CCN(c2nc3ccccc3n2Cc2ccccc2F)CC1,-66.2
8,O=C(c1cc(-c2cccc(Cl)c2)on1)N1CCCC1,-5.13
9,Cc1cccc(C(=O)NCC(=O)OCC(=O)N2CC3(C)CC2CC(C)(C)C3)c1 (stereo not shown),-26
10,C=CCn1c(COc2ccccc2)nnc1SCC(=O)C(C)(C)C,-13.6
11,CN(C)S(=O)(=O)N1CCCC(C(=O)c2ccc(C(F)(F)F)cc2)C1 (stereo not shown),16
12,Cl.O=C(NCCOC(=O)c1ccccc1C(=O)OCCNC(=O)c1cccnc1)c1cccnc1,6.71
13,Cc1nn(C2CCCO2)c(=O)nc1N (stereo not shown),19.1
14,COc1ccc(CCNC(=O)CSc2nc3ccccc3o2)cc1OC,13.9
15,CN1CCC(N(C)C(=O)c2ccccc2F)CC1.Cl,33.5
16,O=C(O)c1cc(NC(=O)c2ccccc2F)cc(NC(=O)c2ccccc2F)c1,3.94
17,FC(F)(F)c1cccc(-n2cccc2/C=N/n2cnnc2)c1,-30
18,CN1CCN(C(=O)Nc2ccc([N+](=O)[O-])cc2)CC1,-23.8
19,O=C(Nc1ccccc1C(=O)Nc1ccc(Br)cn1)c1cccc([N+](=O)[O-])c1,16.6
20,CC(=O)Nc1ccc(S(=O)(=O)Nc2c(NC3CCCCC3)c3ccccc3oc2=O)cc1,7.19
21,COc1cc(CN2CCN(c3ccccc3F)CC2)cc(OC)c1O,-26.4
22,CCc1ccc(S(=O)(=O)NCCc2cn3ccc(C)cc3n2)s1,-54.2

row,Compound,"hERG current change (%, negative = inhibition) at 10uM [%]"
1,O=C(CN1CCN(Cc2ccc(Cl)cc2)CC1)N/N=C/c1c[nH]c2ccccc12,-52.9
2,C/C=C(\C)C(=O)NCCN1C2=NC[C@H](C(C)C)N2C[C@@H]1Cc1ccc(OC)cc1,-86.6
3,CC1(C)N2CC3([N+](=O)[O-])CN1CC([N+](=O)[O-])(C2)C3,11.1
4,S=C(Nc1ccccc1Cl)N1CCOCC1,17.1
5,N#Cc1c(NC(=O)CSc2nc(-c3ccccc3)cc(C(F)(F)F)n2)sc2c1CCC2,16.7
6,Cc1c(C(=O)Nc2c(F)cccc2F)sc2ncn(CC(=O)N3CCCCC3)c(=O)c12,3.98
7,COc1ccc(NC(=S)Nc2ccccc2Cl)cn1,-3.12
8,CCn1c(SCCC#N)nnc1-c1ccncc1,1.69
9,O=C(NC1CC1)c1ccc2c3c(cccc13)CC2,-2.52
10,COc1cc(C2Nc3ccccc3C(=O)N2c2ccc3c(c2)OCCO3)ccc1OCC(C)C (stereo not shown),6.52
11,Cc1ccc2c(c1)/C(=C/c1ccccc1F)C(=O)N2,17.7
12,CCOc1ccc(CN(C)CC(O)COC(c2ccc(OC)cc2)c2ccc(OC)cc2)cc1 (stereo not shown),-77.4
13,CCCSc1nsc(SCCC)c1C(N)=O,-5.26
14,CCC(C)Sc1nnc(CSc2nc(C)cc(C)n2)n1C (stereo not shown),0.765
15,COc1ccc(OC)c(-n2nnnc2SCC(=O)Nc2ccc(C(=O)N3CCCCC3)cc2)c1,-11.2
16,O=C(CSc1nc2ccccc2c(=O)n1NC(=O)Cc1ccccc1)NCc1ccco1,-2.86
17,CC(=O)c1cccc(NC(=S)NCCCCc2ccccc2)c1,-2.16
18,Cc1cc(C(=O)N2CCCC(N3CCN(c4ccccc4C)CC3)C2)nc(C)n1 (stereo not shown),4.27
19,O=C(NCc1ccco1)c1cc2n(n1)C(C(F)(F)F)CC(c1ccc(Cl)c(Cl)c1)N2 (stereo not shown),-17.2
20,CN1/C(=C\C(=O)COC(=O)CN2C(=O)C3CC=CCC3C2=O)C(C)(C)c2ccccc21 (stereo not shown),-19.7
21,CCC(C)N(C(=O)COc1ccc(Cl)c2cccnc12)C1CCS(=O)(=O)C1 (stereo not shown),-4.6
22,COc1ccccc1NC(=S)NCCc1ccc(S(N)(=O)=O)cc1,9.55
